Measurements as given in the supplement of paper PMC3334620.
The full ranking holds about 33,000 sequences; the median of “E-score (-0.5 to 0.5)” is about -0.036, and the highest 2% start at about 0.37. The list shows a part of the results.

biological target: T1, Yer064c (UniProt P40041); experiment: PBM E-score (8-mer binding enrichment) (E-score (-0.5 to 0.5)); higher = stronger / more preferred TF binding; most listed sequences are background and not binding sites; conditions: protein concentration: 200 nM; construct: GST-full length
T1 sequence: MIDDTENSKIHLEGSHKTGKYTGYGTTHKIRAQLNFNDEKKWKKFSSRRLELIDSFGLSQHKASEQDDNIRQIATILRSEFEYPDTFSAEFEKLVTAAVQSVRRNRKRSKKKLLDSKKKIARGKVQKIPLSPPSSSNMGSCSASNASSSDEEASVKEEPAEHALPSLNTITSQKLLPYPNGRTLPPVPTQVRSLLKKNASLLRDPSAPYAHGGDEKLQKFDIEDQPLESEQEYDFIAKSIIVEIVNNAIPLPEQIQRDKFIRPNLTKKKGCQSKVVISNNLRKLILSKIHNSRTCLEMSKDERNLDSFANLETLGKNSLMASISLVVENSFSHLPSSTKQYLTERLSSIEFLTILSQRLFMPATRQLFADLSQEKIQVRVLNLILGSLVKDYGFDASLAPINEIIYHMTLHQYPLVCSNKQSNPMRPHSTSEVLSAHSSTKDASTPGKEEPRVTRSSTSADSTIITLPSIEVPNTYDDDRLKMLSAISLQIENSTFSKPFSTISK
Summary of the method: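 Bound GST-tagged yeast transcription factors, applied at about 100-200 nM to double-stranded universal all-10-mer Agilent arrays, were detected with fluorescent anti-GST. Scans were normalised with masliner. A modified Wilcoxon-Mann-Whitney statistic, the E-score, was assigned to each ungapped eight-base word pooled with its reverse complement by the Universal PBM Analysis Suite.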

Sequence | PBM E-score
ACATAACT | 0.117
AAGAAAGG | -0.171
AGCTTCAG | -0.0949
AGAAAATG | -0.00161
GCTGAGCC | 0.0663
CATGCGAG | 0.0956
ATCGAAGC | -0.295
ACAGGGAT | -0.0572
ACCAACCA | -0.143
CGTCGTTC | -0.0954
CAGGGACC | -0.191
AGCCCCAT | -0.172
CCATGGGA | -0.19
CTTCCGTC | -0.123
CCTGGGTA | -0.0946
CATGAGAA | 0.00801
AAAACCCT | -0.047
CCATTCAC | 0.031
CCGGGGCA | -0.0809
GGGCCGAC | 0.104
CCCATTAC | 0.0439
CGTTTACA | -0.164

Sequence | PBM E-score
CCATCTAG | -0.0675
GCTGCTAC | -0.0263
GATACTGA | 0.0925
CTTGCTAA | -0.13
ACTCGGCG | 0.15
ACCAAGAT | -0.16
AGTGAAGG | 0.149
ACCGTATG | -0.0534
CCACCAAA | -0.117
GATGGGCA | 0.00841
ACAGTCCA | 0.14
TAATGCTA | 0.15
CAAGTCAA | 0.196
GGTTCCTA | -0.0216
ACAAGAGG | -0.124
AGCTTGAG | 0.00041
CCGCGGCA | -0.183
CAACCATG | 0.0873
GTGGCTCA | 0.33
ATCTCCAG | 0.0544
ATCTGTGA | 0.0846
CGTATGAG | 0.18

Sequence | PBM E-score
AAAGCACC | -0.337
AAAATCTG | -0.0593
TAGTAGCA | -0.207
CGCTTCCC | -0.239
CGTAAGGA | -0.0707
AGTTCCAG | -0.286
AGAGTTCG | 0.14
GTGACGTA | -0.0328
CCTCTCCC | -0.162
ATCGATGA | 0.274
AGTGCCGC | -0.214
CCAGTCGC | -0.0128
ACCTACGA | -0.0247
CCTCAGAA | -0.0751
CACTGATA | 0.049
CAGGCCTA | -0.13
GATGGGAA | -0.279
CCTGAAGG | -0.149
GCACAAAC | -0.00349
CCCCAACA | -0.212
AGGTTAAG | 0.0497
CGCCCCGA | -0.0409

Sequence | PBM E-score
CTAGCGAA | 0.173
AGATGAAA | -0.0202
CGGCCTAA | -0.0551
CGGTAACG | -0.017
GGCGAGCC | -0.22
CAGACGCA | -0.205
CATCGATC | 0.0781
CGGTGGTC | -0.218
AGCCAGGA | 0.00892
ACATTCAT | 0.0768
TCAAACCA | 0.17
CACTCTAC | 0.0903
ACCAGCAG | -0.103
ATCGGGCA | -0.13
TGCAACAA | 0.0339
GGCTCACC | 0.116
GTATTAGA | -0.0144
GCGGAGCC | -0.14
ATAAGATG | 0.0671
CATATGTC | -0.00205
